{"source": "PubChem BioAssay AID720536", "about": "(National Center for Advancing Translational Sciences (NCATS), 2013)", "note": "Hit rate of the full screen: of about 1,600 compounds, about 650 (41%) were called active. So high a share suggests a set chosen from earlier hits. The shares of active, inactive and inconclusive entries below differ from those in the screen. Calls follow the shape of the dose curve; as a rule, active = well fitted inhibition curve with a large enough effect; inconclusive = small, poorly fitted or top-dose-only effect; inactive = no such curve, though single readings can be large or run the other way. Potencies of inconclusive entries are left out as doubtful fits. Potency is read from the fitted curve at half-maximal effect; tags tell the direction and shape of the fitted curve.", "data": [{"experiment": "qHTS for Inhibitors of TGF-b: CCL64 Cells Orthogonal Assay for Cherry Picks; also: nearly all actives have a fitted effect of over 65% in size;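 as to activity, negative = inhibition: 0% = stimulated DMSO wells and full inhibition = unstimulated wells without TGF-beta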", "details": "CCL64 CAGA-GFP reporter, TGF-b stimulated, GFP fluorescence, 18 h; activity, negative = inhibition: at 46.1 µM (top of the series)", "outline": "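CCL64 cells carrying a CAGA-GFP reporter (1000/well, DMEM with 1% FBS) were pre-incubated 2 h at 37 degrees C, given compound, then stimulated with 500 pg/mL TGF-beta for 18 h. Per-cell GFP fluorescence was summed per well.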", "values": [{"smiles": "COc1ccc(-c2csc(Nc3ccc(Oc4ccccc4)cc3)n2)cc1", "activity, negative = inhibition": "inactive: 7.39%"}, {"smiles": "O=C(Oc1c(Cl)cc(Cl)c2cccnc12)c1ccco1", "Potency": "inconclusive [inhibitor, single point]"}, {"smiles": "O=c1c(Br)c(Br)cnn1-c1ccccc1", "Potency": "active: 4.61 µM"}, {"smiles": "COc1ccccc1Cc1c(-c2ccco2)nc2c(C)cc(Br)cn12", "Potency": "active: 4.61 µM"}, {"smiles": "CN1CCc2c(sc(NC(=O)c3ccc([N+](=O)[O-])o3)c2C(N)=O)C1", "Potency": "inconclusive [inhibitor, partial curve]"}, {"smiles": "CCCc1cc(-c2n[nH]c(=S)n2CC)c2ccccc2n1", "activity, negative = inhibition": "inactive: -6.24%"}, {"smiles": "CCc1ccc(CN(C)C(=O)c2cc(COc3cccc4cnccc34)on2)cc1", "Potency": "inconclusive [inhibitor, single point]"}, {"smiles": "Cc1ccc(NC(=S)NCCc2c[nH]c3ccccc23)c(C)c1", "Potency": "inconclusive [inhibitor, single point]"}, {"smiles": "Cc1cccc(COCC(CC(C)C)N2CCN(C(=O)c3ccc(C(C)(C)C)cc3)CCC2=O)c1", "note": "(configuration not stated)", "Potency": "inconclusive [inhibitor, single point]"}, {"smiles": "C[C@H](CO)N1C[C@H](C)[C@@H](CN(C)S(=O)(=O)c2ccccc2)Oc2c(NC(=O)Nc3ccc(C(F)(F)F)cc3)cccc2C1=O", "Potency": "inconclusive [inhibitor, single point]"}, {"smiles": "CN(C)C(=O)c1cccc(-c2cnc3sc(NCc4ccc5c(c4)OCO5)nn23)c1", "Potency": "inconclusive [inhibitor, single point]"}, {"smiles": "CN(c1cccc(NC(=O)CN(c2cccc(Cl)c2)S(=O)(=O)c2ccccc2)c1)S(C)(=O)=O", "Potency": "inconclusive [inhibitor, single point]"}, {"smiles": "COc1ccc(C(CNC(=O)c2oc3ccc(OC)cc3c2C)N2CCCC2)cc1", "note": "(configuration not stated)", "activity, negative = inhibition": "inactive: -8.39%"}, {"smiles": "CC(C)(C)NS(=O)(=O)c1cccc(S(=O)(=O)c2cccc(S(=O)(=O)NC(C)(C)C)c2)c1", "activity, negative = inhibition": "inactive: -23.4%"}, {"smiles": "CC(=O)Oc1ccc2ccccc2c1C(NC(=O)Cc1ccccc1)c1ccccc1", "note": "(configuration not stated)", "Potency": "inconclusive [inhibitor, single point]"}, {"smiles": "CCOc1ccc(-n2cc(C(=O)c3cc(Cl)ccc3O)cc(C#N)c2=O)cc1", "Potency": "inconclusive [inhibitor, single point]"}, {"smiles": "CC(=O)c1cccc(-c2cnc3c(NC=O)cc(-c4ccc(N(C)C)cc4)cn23)c1", "Potency": "inconclusive [inhibitor, partial curve, poor fit]"}, {"smiles": "CCCN(CCC)Cc1c(C(=O)N/N=C/C(C)=C\\c2ccco2)nnn1-c1nonc1N", "Potency": "inconclusive [inhibitor, partial curve]"}, {"smiles": "CC(C)(C)S(=O)(=O)/C(C#N)=N/Nc1ccc(Cl)cc1", "Potency": "inconclusive [inhibitor, partial curve, poor fit]"}, {"smiles": "O=C(Nc1ccc(N2CCN(C(=O)c3ccc(Cl)cc3)CC2)cc1)c1ccc([N+](=O)[O-])o1", "Potency": "inconclusive [inhibitor, partial curve, poor fit]"}, {"smiles": "CC1CCCC(C)N1C(=O)Cn1cc(/C=C2/C(=O)Nc3ccccc32)c2ccccc21", "note": "(configuration not stated)", "Potency": "inconclusive [inhibitor, partial curve]"}, {"smiles": "Cc1ccc(C2(c3ccc(C)cc3)CC2C(=O)Nc2ccc([N+](=O)[O-])cc2O)cc1", "note": "(configuration not stated)", "Potency": "active: 7.31 µM"}, {"smiles": "O=C(CSc1cccc[n+]1[O-])Nc1ccccc1Oc1ccccc1", "activity, negative = inhibition": "inactive: 4.11%"}, {"smiles": "C[C@]12c3[nH]c4ccc(Cl)cc4c3CCN1C(=O)[C@@H](CC(=O)NCC13CC4CC(CC(C4)C1)C3)C[C@@H]2C(=O)N1CCOCC1", "Potency": "inconclusive [inhibitor, single point]"}, {"smiles": "Cc1ccc(NC(=O)c2cc(C(=O)c3cc(Cl)ccc3O)cn(-c3ccc(C)cc3)c2=O)cc1", "Potency": "inconclusive [inhibitor, partial curve]"}, {"smiles": "CC(C)CC(COCc1cccc(Cl)c1)N1CCN(C(=O)c2ccc(C(F)(F)F)cc2)CCC1=O", "note": "(configuration not stated)", "Potency": "inconclusive [inhibitor, single point]"}, {"smiles": "CCOC(=O)N/N=C/c1cn(Cc2ccc(Cl)cc2)c2ccccc12", "activity, negative = inhibition": "inactive: 5.11%"}, {"smiles": "CCOc1cc(/C=N/Nc2nc3ccccc3[nH]2)cc(Br)c1OCC(=O)N(C)C", "activity, negative = inhibition": "inconclusive: -38.2% [inhibitor]"}, {"smiles": "O=C(CNC(=S)N(Cc1ccccc1)Cc1ccccc1F)NCc1ccc(Cl)cc1", "Potency": "inconclusive [inhibitor, single point]"}, {"smiles": "Cc1c(C(=O)N2CCN(Cc3ccc4c(c3)OCO4)CC2)sc2ncnc(N3CCN(c4ccccc4F)CC3)c12", "activity, negative = inhibition": "inactive: -9.27%"}, {"smiles": "Cc1cc2nn(-c3ccc(Cl)cc3)nc2cc1N", "activity, negative = inhibition": "inactive: 5.64%"}, {"smiles": "CC(=O)OC1CCC2(C)C(CCC3C4CC=C(C(C)=O)C4(C)OC(=O)CC32)C1", "note": "(configuration not stated)", "Potency": "active: 2.91 µM"}, {"smiles": "Cn1cc([N+](=O)[O-])c(C(=O)Nc2sc3c(c2C#N)CCC3)n1", "activity, negative = inhibition": "inactive: 1.79%"}, {"smiles": "COc1ccc2c(C)nc(Nc3nc(-c4ccccc4)cc(=O)[nH]3)nc2c1", "Potency": "inconclusive [inhibitor, partial curve]"}, {"smiles": "COc1cc(C(=O)N/N=C(\\C)c2ccccn2)cc(OC)c1OC", "Potency": "active: 3.66 µM"}, {"smiles": "COCCN=C1N[C@@H](c2ccc(Br)cc2)C(C(=O)OC)=C(C)N1Cc1ccccc1", "Potency": "inconclusive [inhibitor, single point]"}, {"smiles": "CN(CC(=O)N1CCN(Cc2ccccc2)CC1)C(=O)Cc1cccc2ccccc12", "activity, negative = inhibition": "inactive: 2.11%"}, {"smiles": "CCOc1ccc(CCN2C(=S)N([C@@H](CC(C)C)CN3CCC[C@@H]3CN3C(=S)NC[C@@H]3Cc3ccc(O)cc3)C[C@@H]2CC(C)C)cc1", "Potency": "inconclusive [inhibitor, single point]"}, {"smiles": "O=C(Oc1c(CN2CCOCC2)cc(Cl)c2cccnc12)c1cccs1", "Potency": "active: 16.4 µM"}, {"smiles": "CCOC(=O)C#CC(CCc1ccccc1)OS(N)(=O)=O", "note": "(configuration not stated)", "Potency": "inconclusive [inhibitor, single point]"}, {"smiles": "COc1ccc(/C=C2/CCC(CN3CCOCC3)C2=O)cc1", "note": "(configuration not stated)", "Potency": "active: 4.61 µM"}, {"smiles": "CC1=C(Nc2ccc(C(=O)O)cc2)C(=O)c2ccccc2C1=O", "activity, negative = inhibition": "inactive: -19.9%"}]}]}
